From the supplement of paper PMC12217912
The other results are listed elsewhere or left out. The full chains were built here from the parent and the listed change. Values near 0.05 are background.

B1: TEV protease; numbered along this chain (parent)
chain: MGESLFKGPRDYNPISSSICHLTNESDGHTTSLYGIGFGPFIITNKHLFRRNNGTLVVQSLHGVFKVKDTTTLQQHLVDGRDMIIIRMPKDFPPFPQKLKFREPQREERICLVTTNFQTKSMSSMVSDTSCTFPSGDGIFWKHWIQTKDGQCGSPLVSTRDGFIVGIHSASNFTNTNNYFTSVPKNFMELLTNQEAQQWVSGWRLNADSVLWGGHKVFMVKPEEPFQPVKEATQL

Variants of: B1
Assay: raw area under fraction-flipped curve 0-4 h after induction (AUC4h, not background-subtracted), DNA-recorder readout of cleavage of the substrate (dimensionless); higher = more cleavage of the substrate by the protease variant
Conditions: temperature: 34 °C; time window: 0-4 h after rhamnose induction
Description: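 In vivo DNA recorder in E. coli TOP10(DE3) ΔrhaA at 34 °C. Each TEVp single-site mutant (parent TEVp 0) is paired with a single-site variant of the 7-mer TEVs (canonical ENLYFQ|S). The substrate sits between flexible linkers in a Bxb1-sfGFP-TEVs-SsrA fusion, so cleavage stabilises Bxb1 and speeds flipping of a recombination array, read by NGS. The value is the raw area under the fraction-flipped curve over 0-4 h after rhamnose induction (AUC4h), with ≥20 reads per time point. It is not background-subtracted; inactive controls average about 0.047.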
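Further: Bxb1 expression induced with 0.2% (w/v) L-rhamnose at OD600 near 0.5, cultures sampled hourly, flipped fraction per protease–substrate barcode pair counted by paired-end Illumina sequencing.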

Row | Variant | area with substrate ENLCFQS | area with substrate ENLDFQS | area with substrate ENLEFQS | area with substrate ENLFFQS | area with substrate ENLHFQS | area with substrate ENLIFQS | area with substrate ENLKFQS | area with substrate ENLLFQS | area with substrate ENLNFQS | area with substrate ENLRFQS | area with substrate ENLSFQS | area with substrate ENLWFQS | area with substrate ENLPFQS | area with substrate ENLQFQS | area with substrate ENLVFQS | area with substrate ENLGFQS | area with substrate ENLMFQS | area with substrate ENLTFQS
1 | MGESLFKGPRDYNPISSSICHLTNESDGHTTSLYGIGFGPFIITNKHLFRRNNGTLVVQSLHGVFKVKDTTTLQQHLVDGRDMIIIRMPKDFPPFPQKLKFREPQREERICLVTTNFQTKSDSSMVSDTSCTFPSGDGIFWKHWIQTKDGQCGSPLVSTRDGFIVGIHSASNFTNTNNYFTSVPKNFMELLTNQEAQQWVSGWRLNADSVLWGGHKVFMVKPEEPFQPVKEATQL [M122D] | 0.0795 | 0.0649 | 0.0683 | 0.0736 | 0.0655 | 0.0843 | 0.0718 | 0.0833 | 0.0588 | 0.0688 | 0.0629 | 0.0625 | – | – | – | – | – | –
2 | MGESLFKGPRDYNPISSSICHLTNESDGHTTSLYGIGFGPFIITNKHLFRRNNGTLVVQSLHGVFKVKDTTTLQQHLVDGRDMIIIRMPKDFPPFPQKLKFREPQREERICLVTTNFQTKSGSSMVSDTSCTFPSGDGIFWKHWIQTKDGQCGSPLVSTRDGFIVGIHSASNFTNTNNYFTSVPKNFMELLTNQEAQQWVSGWRLNADSVLWGGHKVFMVKPEEPFQPVKEATQL [M122G] | 0.0712 | 0.0649 | 0.0583 | 0.114 | – | – | – | – | 0.0568 | 0.0614 | – | – | 0.0541 | 0.0681 | – | – | – | –
3 | MGESLFKGPRDYNPISSSICHLTNESDGHTTSLYGIGFGPFIITNKHLFRRNNGTLVVQSLHGVFKVKDTTTLQQHLVDGRDMIIIRMPKDFPPFPQKLKFREPQREERICLVTTNFQTKSMSSMLSDTSCTFPSGDGIFWKHWIQTKDGQCGSPLVSTRDGFIVGIHSASNFTNTNNYFTSVPKNFMELLTNQEAQQWVSGWRLNADSVLWGGHKVFMVKPEEPFQPVKEATQL [V126L] | 0.0629 | 0.0582 | 0.0599 | 0.0792 | – | 0.0966 | 0.0796 | 0.0573 | 0.0701 | – | – | 0.073 | – | – | 0.116 | – | – | –
4 | MGESLFKGPRDYNPISSSICHLTNESDGHTTSLYGIGFGPFIITNKHLFRRNNGTLVVQSLHGVFKVKDTTTLQQHLVDGRDMIIIRMPKDFPPFPQKLKFREPQREERICLVTTNFQTKSMSSMVSDYSCTFPSGDGIFWKHWIQTKDGQCGSPLVSTRDGFIVGIHSASNFTNTNNYFTSVPKNFMELLTNQEAQQWVSGWRLNADSVLWGGHKVFMVKPEEPFQPVKEATQL [T129Y] | 0.083 | 0.0968 | 0.0661 | 0.0472 | – | 0.0951 | 0.0765 | 0.0605 | 0.0449 | 0.0757 | 0.0641 | 0.0622 | – | – | – | 0.0606 | – | –
5 | MGESLFKGPRDYNPISSSICHLTNESDGHTTSLYGIGFGPFIITNKHLFRRNNGTLVVQSLHGVFKVKDTTTLQQHLVDGRDMIIIRMPKDFPPFPQKLKFREPQREERICLVTTNFQTKSMSSMVSDTSRTFPSGDGIFWKHWIQTKDGQCGSPLVSTRDGFIVGIHSASNFTNTNNYFTSVPKNFMELLTNQEAQQWVSGWRLNADSVLWGGHKVFMVKPEEPFQPVKEATQL [C131R] | 0.0602 | – | 0.0759 | – | – | – | 0.0684 | – | 0.0416 | – | – | – | – | – | – | – | – | –
6 | MGESLFKGPRDYNPISSSICHLTNESDGHTTSLYGIGFGPFIITNKHLFRRNNGTLVVQSLHGVFKVKDTTTLQQHLVDGRDMIIIRMPKDFPPFPQKLKFREPQREERICLVTTNFQTKSMSSMVSDTSCTFKSGDGIFWKHWIQTKDGQCGSPLVSTRDGFIVGIHSASNFTNTNNYFTSVPKNFMELLTNQEAQQWVSGWRLNADSVLWGGHKVFMVKPEEPFQPVKEATQL [P134K] | 0.0728 | 0.0605 | 0.0619 | 0.0636 | 0.0494 | 0.0634 | 0.0844 | 0.0755 | 0.057 | 0.0621 | 0.0772 | – | 0.0532 | – | – | – | 0.0914 | –
7 | MGESLFKGPRDYNPISSSICHLTNESDGHTTSLYGIGFGPFIITNKHLFRRNNGTLVVQSLHGVFKVKDTTTLQQHLVDGRDMIIIRMPKDFPPFPQKLKFREPQREERICLVTTNFQTKSMSSMVSDTSCTFPSGEGIFWKHWIQTKDGQCGSPLVSTRDGFIVGIHSASNFTNTNNYFTSVPKNFMELLTNQEAQQWVSGWRLNADSVLWGGHKVFMVKPEEPFQPVKEATQL [D137E] | 0.102 | 0.0533 | 0.0581 | 0.0877 | 0.08 | 0.106 | 0.0819 | – | 0.0674 | 0.0712 | – | – | 0.0602 | 0.0681 | 0.0792 | – | 0.0609 | –
8 | MGESLFKGPRDYNPISSSICHLTNESDGHTTSLYGIGFGPFIITNKHLFRRNNGTLVVQSLHGVFKVKDTTTLQQHLVDGRDMIIIRMPKDFPPFPQKLKFREPQREERICLVTTNFQTKSMSSMVSDTSCTFPSGDGLFWKHWIQTKDGQCGSPLVSTRDGFIVGIHSASNFTNTNNYFTSVPKNFMELLTNQEAQQWVSGWRLNADSVLWGGHKVFMVKPEEPFQPVKEATQL [I139L] | 0.0654 | 0.0638 | – | 0.086 | 0.068 | 0.0907 | 0.0649 | 0.0825 | 0.0707 | 0.0496 | 0.0708 | – | 0.0707 | 0.0428 | – | 0.0567 | – | –
9 | MGESLFKGPRDYNPISSSICHLTNESDGHTTSLYGIGFGPFIITNKHLFRRNNGTLVVQSLHGVFKVKDTTTLQQHLVDGRDMIIIRMPKDFPPFPQKLKFREPQREERICLVTTNFQTKSMSSMVSDTSCTFPSGDGIFWKHWPQTKDGQCGSPLVSTRDGFIVGIHSASNFTNTNNYFTSVPKNFMELLTNQEAQQWVSGWRLNADSVLWGGHKVFMVKPEEPFQPVKEATQL [I145P] | 0.0476 | – | – | 0.0723 | – | – | 0.0653 | – | 0.0648 | – | – | – | 0.0483 | – | – | – | – | –
10 | MGESLFKGPRDYNPISSSICHLTNESDGHTTSLYGIGFGPFIITNKHLFRRNNGTLVVQSLHGVFKVKDTTTLQQHLVDGRDMIIIRMPKDFPPFPQKLKFREPQREERICLVTTNFQTKSMSSMVSDTSCTFPSGDGIFWKHWWQTKDGQCGSPLVSTRDGFIVGIHSASNFTNTNNYFTSVPKNFMELLTNQEAQQWVSGWRLNADSVLWGGHKVFMVKPEEPFQPVKEATQL [I145W] | 0.0712 | 0.0638 | 0.0516 | 0.0525 | 0.0393 | – | 0.048 | – | 0.0561 | 0.0589 | 0.0497 | – | 0.0259 | – | 0.0753 | 0.0682 | – | 0.0755
